This passage reports binding signal results from article PMC12136788.

This is one part of the list.

B1: chr6:132743869:132744491:-|three_prime_utr|ENSG00000112303|control|control|control (ssRNA)
RNA: GGGAGUUCUACAGUCCGACGAUCAUGUGGGACCAGCAAUUCAGCAAUAACUUACCUGCUAAUAUUCAUAUUAUUAAUGAUCAUAGCUUUGCAAAAUAUUGUAAUGUUAUAGGGCGUCUCUUUAUCACUCAGCUUCUGCAUCAUCAACAGAGGAUUGAGCAUCA
B2: chr1:46532996:46533527:-|CDS|ENSG00000282881|control|control|control (ssRNA)
RNA: GGGAGUUCUACAGUCCGACGAUCGUCGUGGGGCUGGCGCUGCUGGUGCUGGCGCUCGGCUUCUUCGCGGCCUGCUGCGUGUGUAGCCGCCGGGGCCUCGCGCCCCGUGGGCGCUCGGCGGCCGCGGCGGGCCCGGGCCAGGGUCAACAGAGGAUUGAGCAUCA
B3: chr1:153662446:153662560:-|CDS|ENSG00000143621|unk|total|mutant (ssRNA)
RNA: GGGAGUUCUACAGUCCGACGAUCAAUCACCUUUUUCUCUUUCCCCGAUCUUGCUUCUGAAAUAUCUACCUGGGAUGGAGUGACCGUAACACCUUCAGAAAAGGCUUAUGAGAAGCCACCAGAGAAGAAGGAAGGAGAGGAAGACAACAGAGGAUUGAGCAUCA
B4: ENSG00000107863:be:win_4301|CDS|ENSG00000107863|bound_else_gene|NA|bound_elsewhere_windowed (ssRNA)
RNA: GGGAGUUCUACAGUCCGACGAUCAAGAUGAACUGGACAAUGUAUUUUUUAAGAAAGAAAAUGUGGAACAGUGUCACAAUGAUACUAAAGAGGAGUCCAAAAAAGAAAGUGAGACACUGGGCAGAAAACAGAAGAUCAUCAUUGCAACAGAGGAUUGAGCAUCA
B5: chr10:121957106:121957207:-|3pUTR|ENSG00000107672|msi1|FALSE|bound_elsewhere (ssRNA)
RNA: GGGAGUUCUACAGUCCGACGAUCUGUAUCGUACAUAUUGUAUGAUUCAACAUUUUUAAAGGCAGAUUGUUUUUAGUAAAAUGUAGCUUUUGAUAGUUAAUAAAUUUGUCAUGGUUGUCUUUGAUUAAAGGAAACUCACCGCCACAACAGAGGAUUGAGCAUCA
B6: chr3:36528868:36528981:+|CDS|ENSG00000144681|unk|total|mutant (ssRNA)
RNA: GGGAGUUCUACAGUCCGACGAUCAGAAUUGGCUUCUUUCCAGCCAACUUUGUUCAGAGACUACAACAAAAUGAGAAGAUUUUCCGAUGUGUCCGAACCUUCAUUGGGUGUAAGGAACAGGGGCAGAUAACACUGAAAGAGAAUCAACAGAGGAUUGAGCAUCA

In the test the target is T1, UNK ZnF1-6 (called full-length) (human, UniProt Q9C0B0 30-357).
T1 sequence: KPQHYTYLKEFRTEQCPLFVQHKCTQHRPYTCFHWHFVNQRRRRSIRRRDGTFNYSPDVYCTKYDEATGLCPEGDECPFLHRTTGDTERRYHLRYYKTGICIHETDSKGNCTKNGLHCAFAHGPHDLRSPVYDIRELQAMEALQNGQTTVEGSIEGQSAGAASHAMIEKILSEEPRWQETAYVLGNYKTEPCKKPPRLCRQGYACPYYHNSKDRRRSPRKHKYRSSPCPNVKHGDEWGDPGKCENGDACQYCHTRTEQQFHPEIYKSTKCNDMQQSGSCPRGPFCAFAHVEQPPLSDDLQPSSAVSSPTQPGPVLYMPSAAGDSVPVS
Nature of the test: nsRBNS (natural sequence RNA bind-n-seq); RBNS binding buffer (assumed for nsRBNS): 25 mM Tris pH 7.5, 150 mM KCl, 3 mM MgCl2, 0.01% Triton X-100, 500 ug/ml BSA, 20 U/ml SUPERase-In, 4 C; UNK is unkempt and MSI1 is Musashi-1; names of the RNAs are library labels; protein concentration not given here; high values mean tight binding.
In turn, B1 registered a binding signal of 0.744 enrichment R.

In the case of B2, the binding signal was 4.09 enrichment R.

B3: the binding signal is 0.586 enrichment R.

B4 displayed a binding signal of 0.566 enrichment R.

In the case of B5, the binding signal came out at 13.5 enrichment R.

On to B6, for which the binding signal came out at 0.401 enrichment R.
